Measured values as given in the supplement of paper PMC9938546.
Counter-ions that a name gives are not always drawn. Some of the results follow. Most values come without repeats; read them as rough.

system: HCT116-GFP; test: HCT116-GFP viability (GFP intensity) relative to untreated control, monoculture; higher = less cancer cell killing; conditions: culture: HCT116-GFP monoculture; 10 µM; 72 h
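Note: viability estimated indirectly by image-based GFP quantification with live-cell imaging of the constitutively GFP-expressing human colorectal cancer line, no immune cells added.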

| SMILES | HCT116-GFP viability [%] |
| --- | --- |
| COc1ccc([C@@H]2CC(=O)c3c(O)cc(O[C@@H]4O[C@H](CO[C@@H]5O[C@@H](C)[C@H](O)[C@@H](O)[C@H]5O)[C@@H](O)[C@H](O)[C@H]4O)cc3O2)cc1O [Hesperidin] | 96 |
| CC(C)(C(=O)O)c1ccc(C(O)CCCN2CCC(C(O)(c3ccccc3)c3ccccc3)CC2)cc1 (centres undefined) [Fexofenadine hydrochloride] | 79.7 |
| Cc1c(C)c2c(c(C)c1O)CCC(C)(COc1ccc(CC3SC(=O)NC3=O)cc1)O2 (centres undefined) [Troglitazone] | 57.2 |
| COC(c1ccccc1)(c1ccccc1)[C@H](Oc1nc(C)cc(C)n1)C(=O)O [Ambrisentan] | 95.8 |
| CSc1ccc2c(c1)C(N1CCN(C)CC1)Cc1ccccc1S2 (centres undefined) [Methiothepin maleate] | 47.7 |
| CC(C(=O)O)c1ccc2c(c1)Cc1cccnc1O2 (centres undefined) [Pranoprofen] | 98.1 |
| CNCCCC1c2ccccc2C=Cc2ccccc21 [Protriptyline hydrochloride] | 80.3 |
| CCCCCCC[N+](CC)(CC)CCCCc1ccc(Cl)cc1 [Clofilium tosylate] | 38.7 |
| C[C@]12CCC(=O)C=C1CC[C@@H]1[C@@H]2[C@@H](O)C[C@@]2(C)[C@H]1CC[C@]2(O)C(=O)CO [Hydrocortisone base] | 96 |
| Oc1ncnc2[nH]ncc12 [Allopurinol] | 96 |
| CCCc1cc(=O)[nH]c(=S)[nH]1 [Propylthiouracil] | 101 |
| Cc1onc(-c2ccccc2)c1-c1ccc(S(N)(=O)=O)cc1 [Valdecoxib] | 98 |
| COc1ccc(CCN(C)CCCC(C#N)(c2ccc(OC)c(OC)c2)C(C)C)cc1OC (centres undefined) [Verapamil hydrochloride] | 85.5 |
| C[N+]1(CCCCC[N+]2(C)CCCC2)CCCC1 [Pentolinium bitartrate] | 98.1 |
| Fc1ccc(C(c2ccc(F)cc2)N2CCN(C/C=C/c3ccccc3)CC2)cc1 [Flunarizine dihydrochloride] | 68.2 |
| CCCCC(=O)O[C@H]1CC[C@H]2[C@@H]3CCc4cc(O)ccc4[C@H]3CC[C@]12C [Estradiol Valerate] | 81.9 |
| Cn1c(NCCN(CCO)CCCc2ccc([N+](=O)[O-])cc2)cc(=O)n(C)c1=O [Nifekalant] | 98.9 |
| N=C(N)c1ccc(OCCCCCOc2ccc(C(=N)N)cc2)cc1 [Pentamidine isethionate] | 45.5 |
| OCCOCCN1CCN(C2=Nc3ccccc3Sc3ccccc32)CC1 [Quetiapine hemifumarate] | 95.3 |
| CC1(C)S[C@@H]2[C@H](NC(=O)[C@H](N)c3ccc(O)cc3)C(=O)N2[C@H]1C(=O)O [Amoxicillin] | 99.7 |
| CCC(=O)O[C@@H](O[P@](=O)(CCCCc1ccccc1)CC(=O)N1C[C@H](C2CCCCC2)C[C@H]1C(=O)O)C(C)C [Fosinopril] | 94.6 |
| COc1cccc2c1C(=O)c1c(O)c3c(c(O)c1C2=O)C[C@@](O)(C(=O)CO)C[C@@H]3O[C@H]1C[C@H](N)[C@H](O)[C@H](C)O1 [Doxorubicin hydrochloride] | 6.27 |
| CN[C@@H]1[C@H](O[C@H]2[C@H](O[C@H]3[C@H](O)[C@@H](O)[C@H](N=C(N)N)[C@@H](O)[C@@H]3N=C(N)N)O[C@@H](C)[C@]2(O)C=O)O[C@@H](CO)[C@H](O)[C@H]1O [Streptomycin sulfate] | 104 |

| SMILES | HCT116-GFP viability [%] |
| --- | --- |
| Nc1nc(Cl)nc2c1ncn2[C@H]1C[C@H](O)[C@@H](CO)O1 [Cladribine] | 14.1 |
| CCCC1O[C@@H]2C[C@H]3[C@@H]4CCC5=CC(=O)C=C[C@]5(C)[C@H]4[C@@H](O)C[C@]3(C)[C@]2(C(=O)CO)O1 (some centres undefined) [Budesonide] | 100 |
| CC(C(=O)O)c1cccc(C(=O)c2ccccc2)c1 (centres undefined) [Ketoprofen] | 107 |
| C#C[C@]1(O)CC[C@H]2[C@@H]3CCc4cc(O)ccc4[C@H]3CC[C@@]21C [Ethinylestradiol] | 74 |
| CCCCN(CCCC)CCC(O)c1cc2c(Cl)cc(Cl)cc2c2cc(C(F)(F)F)ccc12 (centres undefined) [Halofantrine hydrochloride] | 67.5 |
| CCOC(=O)C1=C(C)NC(C)=C(C(=O)OCC)C1c1ccccc1/C=C/C(=O)OC(C)(C)C [Lacidipine] | 67.8 |
| CCOc1cc(CC(=O)N[C@@H](CC(C)C)c2ccccc2N2CCCCC2)ccc1C(=O)O [Repaglinide] | 76.3 |
| COc1c(N2C[C@@H]3CCCN[C@@H]3C2)c(F)cc2c(=O)c(C(=O)O)cn(C3CC3)c12 [Moxifloxacin] | 94.1 |
| COc1ccc(C(=O)c2ccccc2)c(O)c1 [Oxybenzone] | 97 |
| COc1ncnc(NS(=O)(=O)c2ccc(N)cc2)c1OC [Sulfadoxine] | 99.4 |
| CC(=O)OCC(=O)[C@@]1(O)[C@H](C)C[C@H]2[C@@H]3CCC4=CC(=O)C=C[C@]4(C)[C@@]3(F)[C@@H](O)C[C@@]21C [Dexamethasone acetate] | 112 |
| COc1ccc(C(=O)CC(=O)c2ccc(C(C)(C)C)cc2)cc1 [Avobenzone] | 81.2 |
| Nc1nc2c(ncn2COCCO)c(=O)[nH]1 [Acyclovir] | 101 |
| CC(C)(C)NC(=O)[C@@H]1C[C@@H]2CCCC[C@@H]2CN1C[C@@H](O)[C@H](Cc1ccccc1)NC(=O)[C@H](CC(N)=O)NC(=O)c1ccc2ccccc2n1 [Saquinavir mesylate] | 91.3 |
| CCCCCN(CCCCC)C(=O)C(CCC(=O)O)NC(=O)c1ccc(Cl)c(Cl)c1 (centres undefined) [Lorglumide sodium salt] | 100 |
| O=C(CCCCCCC(=O)Nc1ccccc1)NO [Vorinostat] | 4.57 |
| CC[C@H]1OC(=O)C[C@@H](O)[C@H](C)[C@@H](O[C@@H]2O[C@H](C)[C@@H](O[C@H]3C[C@@](C)(O)[C@@H](O)[C@H](C)O3)[C@H](N(C)C)[C@H]2O)[C@@H](CC=O)C[C@@H](C)C(=O)/C=C/C(C)=C/[C@@H]1CO[C@@H]1O[C@H](C)[C@@H](O)[C@@H](OC)[C@H]1OC [Tylosin] | 86.4 |
| C[C@]12C[C@H](O)[C@H]3[C@@H](CCC4=CC(=O)CC[C@@]43C)[C@@H]1CC[C@@H]2C(=O)CO [Corticosterone] | 82.9 |
| COC(=O)C1=C(C)NC(C)=C(C(=O)OC2CCCN(Cc3ccccc3)C2)C1c1cccc([N+](=O)[O-])c1 (centres undefined) [Benidipine hydrochloride] | 62.9 |
| CC1(C)O[C@@H]2C[C@H]3[C@@H]4CCC5=CC(=O)C=C[C@]5(C)[C@H]4[C@@H](O)C[C@]3(C)[C@]2(C(=O)CO)O1 [Desonide] | 121 |
| CCN(CC)C(=S)SSC(=S)N(CC)CC [Disulfiram] | 66.5 |
| C/C(=C(\CCOP(=O)(O)O)SC(=O)c1ccccc1)N(C=O)Cc1cnc(C)nc1N [Benfotiamine] | 103 |
| Nc1c2c(nc3ccccc13)CCCC2 [Tacrine hydrochloride] | 114 |

| SMILES | HCT116-GFP viability [%] |
| --- | --- |
| O=C1CN(/N=C/c2ccc([N+](=O)[O-])o2)C(=O)N1 [Nitrofurantoin] | 87.2 |
| Cc1ccccc1OCC(O)CO (centres undefined) [Mephenesin] | 94.7 |
| C[C@H](N)[C@H](O)c1cccc(O)c1 [Metaraminol bitartrate] | 98.7 |
| CCN(CC)CCOC(=O)C(Cc1cccc2ccccc12)CC1CCCO1 (centres undefined) [Nafronyl oxalate] | 102 |
| O=C1CN(/N=C/c2ccc(-c3ccc([N+](=O)[O-])cc3)o2)C(=O)N1 [Dantrolene sodium salt] | 76.9 |
| CCOC(=O)n1ccn(C)c1=S [Carbimazole] | 94.4 |
| CC1(C)S[C@@H]2[C@H](NC(=O)[C@H](C(=O)O)c3ccsc3)C(=O)N2[C@H]1C(=O)O [Ticarcillin sodium] | 90.7 |
| CN[C@@H]1[C@@H](O)[C@@H](O[C@@H]2[C@@H](O)[C@H](O[C@H]3OC(CN)=CC[C@H]3N)[C@@H](N)C[C@H]2N)OC[C@]1(C)O [Sisomicin sulfate] | 92 |
| Cc1cc(NS(=O)(=O)c2ccc(N)cc2)no1 [Sulfamethoxazole] | 101 |
| NCCCC(O)(P(=O)(O)O)P(=O)(O)O [Alendronate sodium] | 98.6 |
| CNC[C@H](O)[C@@H](O)[C@H](O)[C@H](O)CO [Meglumine] | 77.5 |
| Nc1ccc(S(=O)(=O)Nc2cnc3ccccc3n2)cc1 [Sulfaquinoxaline sodium salt] | 96.9 |
| N=C(N)NCc1cccc(I)c1 [Iobenguane sulfate] | 95 |
| C[C@H]1NC(=O)NC1=O [Methylhydantoin-5-(D)] | 93.8 |
| Cc1ccnc(NS(=O)(=O)c2ccc(N)cc2)n1 [Sulfamerazine] | 89.2 |
| NC(=O)OCC(COC(N)=O)c1ccccc1 [Felbamate] | 97.3 |
| CC(C)n1c(/C=C/C(O)CC(O)CC(=O)O)c(-c2ccc(F)cc2)c2ccccc21 (centres undefined) [Fluvastatin sodium salt] | 28.8 |
| CCCCNc1cc(C(=O)O)cc(S(N)(=O)=O)c1Oc1ccccc1 [Bumetanide] | 112 |
| CNC(=O)c1c(I)c(C(=O)NCC(=O)Nc2c(I)c(C(=O)O)c(I)c(C(=O)NCCO)c2I)c(I)c(N(C)C(C)=O)c1I [Ioxaglic acid] | 87.8 |
| CC(=O)Oc1ccccc1C(=O)Oc1ccccc1C(=O)O [Acetylsalicylsalicylic acid] | 98 |
| CCN(CC)CCOC(=O)c1ccc(N)cc1 [Procaine hydrochloride] | 99.2 |
| Cc1c(C)c2c(c(C)c1O)CCC(C)(C(=O)O)O2 (centres undefined) [Trolox] | 119 |
| CC[C@H](C)C(=O)O[C@H]1C[C@@H](C)C=C2C=C[C@H](C)[C@H](CC[C@@H]3C[C@@H](O)CC(=O)O3)[C@H]21 [Lovastatin] | 95.3 |
